{"sequences": {"note": "By UniProt entry, the sequences of proteins in these tests, tags left out.", "UniProt P02340": "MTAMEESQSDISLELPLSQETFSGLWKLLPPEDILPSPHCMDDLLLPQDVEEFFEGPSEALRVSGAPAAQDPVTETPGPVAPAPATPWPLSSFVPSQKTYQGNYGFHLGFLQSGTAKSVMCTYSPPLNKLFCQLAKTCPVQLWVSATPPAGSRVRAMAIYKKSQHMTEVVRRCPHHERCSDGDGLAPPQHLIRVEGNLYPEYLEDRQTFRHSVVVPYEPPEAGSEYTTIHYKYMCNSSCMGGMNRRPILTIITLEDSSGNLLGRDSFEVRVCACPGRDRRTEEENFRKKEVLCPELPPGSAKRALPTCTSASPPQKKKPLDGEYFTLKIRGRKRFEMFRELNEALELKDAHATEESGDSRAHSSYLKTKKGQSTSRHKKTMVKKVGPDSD"}, "source": "paper PMC12036874", "key": {"[1]": {"biological_target": "T1, Pirh2 (total length, TL) overexpressed by adenovirus in HL-1 cardiomyocytes (UniProt Q9CR50)", "T1 sequence": "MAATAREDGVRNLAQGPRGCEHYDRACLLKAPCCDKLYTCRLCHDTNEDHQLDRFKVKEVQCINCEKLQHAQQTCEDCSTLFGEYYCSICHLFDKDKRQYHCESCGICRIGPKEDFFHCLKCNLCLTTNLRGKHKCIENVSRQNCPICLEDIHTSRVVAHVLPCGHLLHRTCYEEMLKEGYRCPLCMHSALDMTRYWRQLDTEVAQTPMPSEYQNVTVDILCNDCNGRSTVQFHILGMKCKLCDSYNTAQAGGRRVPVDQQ", "experiment": "proximity ligation; DOX-treated HL-1 cardiomyocytes transfected with Vector, total-length or deletion-mutant AIG1 or Pirh2 adenovirus"}, "[2]": {"biological_target": "T2, Pirh2 E3 ubiquitin ligase (ring finger and CHY zinc finger domain containing 1, RCHY1), endogenous in HL-1 cardiomyocytes (mouse (endogenous in HL-1)) (UniProt Q9CR50)", "T2 sequence": "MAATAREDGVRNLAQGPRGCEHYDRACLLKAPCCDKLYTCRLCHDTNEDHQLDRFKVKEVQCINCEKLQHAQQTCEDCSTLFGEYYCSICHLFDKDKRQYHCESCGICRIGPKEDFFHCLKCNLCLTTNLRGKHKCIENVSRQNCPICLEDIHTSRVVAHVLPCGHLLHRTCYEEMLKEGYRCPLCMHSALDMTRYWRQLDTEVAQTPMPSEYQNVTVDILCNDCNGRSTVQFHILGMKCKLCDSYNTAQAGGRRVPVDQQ", "experiment": "proximity ligation; endogenous proteins in HL-1 cardiomyocytes; DMSO or DOX (1 μM, 24 h), with or without AIG1 knockdown or overexpression"}, "[3]": {"biological_target": "T2, Pirh2 E3 ubiquitin ligase (ring finger and CHY zinc finger domain containing 1, RCHY1), endogenous in HL-1 cardiomyocytes (mouse (endogenous in HL-1))", "experiment": "co-IP; Co-IP using anti-Pirh2 in HL-1 cardiomyocytes with or without AIG1 knockdown or overexpression under DOX (1 μM, 24 h) stress"}, "[4]": {"biological_target": "T3, full-length Pirh2 (total-length, TL) expressed in HEK293T cells (UniProt Q9CR50)", "T3 sequence": "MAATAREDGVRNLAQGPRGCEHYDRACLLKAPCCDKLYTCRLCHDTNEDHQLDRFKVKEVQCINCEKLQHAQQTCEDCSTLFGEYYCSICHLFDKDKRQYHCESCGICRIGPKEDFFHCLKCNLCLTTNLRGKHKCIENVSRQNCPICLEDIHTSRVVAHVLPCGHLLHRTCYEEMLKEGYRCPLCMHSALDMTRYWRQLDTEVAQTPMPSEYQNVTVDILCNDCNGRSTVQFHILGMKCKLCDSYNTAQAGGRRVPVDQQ", "experiment": "co-IP; MG132-treated HEK293T cells co-transfected with AIG1, Pirh2 and p53 constructs (Figure 5Q, S8S)"}, "[5]": {"biological_target": "T3, full-length Pirh2 (total-length, TL) expressed in HEK293T cells", "experiment": "co-IP; Co-IP using an anti-HA tag in HEK293T cells co-transfected with total-length or truncated AIG1 and Pirh2 vectors"}, "[6]": {"biological_target": "T4, Androgen-induced gene 1 (AIG1), endogenous in HL-1 cardiomyocytes (mouse (endogenous in HL-1)) (UniProt Q9D8B1)", "T4 sequence": "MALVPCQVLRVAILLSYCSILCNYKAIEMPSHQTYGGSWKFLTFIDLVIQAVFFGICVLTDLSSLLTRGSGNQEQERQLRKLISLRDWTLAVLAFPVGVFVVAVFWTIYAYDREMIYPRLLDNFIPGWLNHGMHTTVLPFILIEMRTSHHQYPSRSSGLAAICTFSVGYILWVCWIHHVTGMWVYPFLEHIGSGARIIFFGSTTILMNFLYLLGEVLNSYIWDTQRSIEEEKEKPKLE", "experiment": "co-IP; endogenous proteins in cardiomyocytes, steady state and after DOX treatment (Figure S8N); bait antibody not told in the shown text"}, "[7]": {"biological_target": "T2, Pirh2 E3 ubiquitin ligase (ring finger and CHY zinc finger domain containing 1, RCHY1), endogenous in HL-1 cardiomyocytes (mouse (endogenous in HL-1))", "experiment": "proximity ligation; endogenous proteins in HL-1 cardiomyocytes; DMSO or DOX (1 μM, 24 h), with or without AIG1 knockdown or overexpression", "remark": "listed apart in the source"}, "[8]": {"biological_target": "T2, Pirh2 E3 ubiquitin ligase (ring finger and CHY zinc finger domain containing 1, RCHY1), endogenous in HL-1 cardiomyocytes (mouse (endogenous in HL-1))", "experiment": "co-IP; endogenous proteins in cardiomyocytes, steady state and after DOX treatment (Figure S8N); bait antibody not told in the shown text"}, "[9]": {"biological_target": "T2, Pirh2 E3 ubiquitin ligase (ring finger and CHY zinc finger domain containing 1, RCHY1), endogenous in HL-1 cardiomyocytes (mouse (endogenous in HL-1))", "experiment": "proximity ligation; DOX-treated HL-1 cardiomyocytes transfected with Vector, total-length or deletion-mutant AIG1 or Pirh2 adenovirus"}, "[10]": {"biological_target": "T5, Pirh2 Δ137-189 aa mutant expressed in HEK293T cells (UniProt Q9CR50)", "T5 sequence": "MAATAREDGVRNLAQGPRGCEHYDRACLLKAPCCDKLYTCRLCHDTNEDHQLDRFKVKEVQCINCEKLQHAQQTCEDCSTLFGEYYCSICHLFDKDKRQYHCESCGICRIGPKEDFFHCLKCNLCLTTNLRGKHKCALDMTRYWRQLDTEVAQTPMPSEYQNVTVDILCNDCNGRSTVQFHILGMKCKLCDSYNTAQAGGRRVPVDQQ", "experiment": "co-IP; Co-IP using an anti-HA tag in HEK293T cells co-transfected with total-length or truncated AIG1 and Pirh2 vectors"}, "[11]": {"biological_target": "T6, Pirh2 Δ99-107 aa mutant expressed in HEK293T cells (UniProt Q9CR50)", "T6 sequence": "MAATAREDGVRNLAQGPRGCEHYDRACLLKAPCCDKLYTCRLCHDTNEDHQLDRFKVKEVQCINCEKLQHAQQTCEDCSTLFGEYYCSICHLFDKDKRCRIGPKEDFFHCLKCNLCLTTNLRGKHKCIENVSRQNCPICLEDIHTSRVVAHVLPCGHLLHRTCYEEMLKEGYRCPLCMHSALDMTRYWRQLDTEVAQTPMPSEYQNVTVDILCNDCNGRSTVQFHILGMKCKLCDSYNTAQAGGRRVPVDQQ", "experiment": "co-IP; Co-IP using an anti-HA tag in HEK293T cells co-transfected with total-length or truncated AIG1 and Pirh2 vectors"}, "[12]": {"biological_target": "T7, Pirh2 Δ31-57 aa mutant expressed in HEK293T cells (UniProt Q9CR50)", "T7 sequence": "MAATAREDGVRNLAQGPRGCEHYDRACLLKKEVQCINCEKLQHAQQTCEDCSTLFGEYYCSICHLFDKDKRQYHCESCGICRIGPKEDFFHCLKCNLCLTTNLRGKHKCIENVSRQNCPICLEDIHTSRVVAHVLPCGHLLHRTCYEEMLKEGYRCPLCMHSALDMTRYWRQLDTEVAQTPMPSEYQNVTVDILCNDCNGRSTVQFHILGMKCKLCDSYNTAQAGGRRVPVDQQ", "experiment": "co-IP; Co-IP using an anti-HA tag in HEK293T cells co-transfected with total-length or truncated AIG1 and Pirh2 vectors"}}, "note": "No constants are given. Whether binding was seen depends on the method and setting. In cells and extracts the contact can be indirect. Some results given as binding are weak or reduced against the parent protein; the word gives no strength."}
{"molecule": "p53, endogenous in HL-1 cardiomyocytes (from UniProt P02340 1-390)", "values": [{"measurement": "binding", "setting": "[1]", "value": "binds"}, {"measurement": "binding", "setting": "[2]", "value": "binds"}, {"measurement": "binding", "setting": "[3]", "value": "binds"}]}
{"molecule": "exogenous p53 expressed in HEK293T cells (from UniProt P02340 1-390)", "values": [{"measurement": "binding", "setting": "[4]", "value": "binds"}]}
{"molecule": "AIG1 Δ35-93 aa mutant expressed in HEK293T cells (protein, UniProt Q9D8B1) MALVPCQVLRVAILLSYCSILCNYKAIEMPSHQTAFPVGVFVVAVFWTIYAYDREMIYPRLLDNFIPGWLNHGMHTTVLPFILIEMRTSHHQYPSRSSGLAAICTFSVGYILWVCWIHHVTGMWVYPFLEHIGSGARIIFFGSTTILMNFLYLLGEVLNSYIWDTQRSIEEEKEKPKLE", "values": [{"measurement": "binding", "setting": "[5]", "value": "no binding"}]}
{"molecule": "RNF34, endogenous in cardiomyocytes (enzyme, UniProt Q99KR6 1-376) MKAGATSMWASCCGLLNEVMGTGAVRGQQAGFPGSTGPFRFTPSSDFPTYPPAATEGPNIVCKACGLSFSVFRKKHVCCDCKKDFCSLCSVSQENLRRCSTCHLLQETAFQRPQLMRLKVKDLRQYLLLRNIPTDTCREKEDLVDLVLCHRGLGSGDDLDSSSLNSSRSQTSSFFTQSLFSNYTPPSATVSSFQGELMDRDGAFRSEVLAQVQSEIASANTDDDDDDDDDDDDDEDDDDEQEEEEQNPGLSKKKARASLSDLSSLEEVEGMSVRQLKEILARNFVNYSGCCEKWELVEKVNRLYKENEENQKSYGERMQLQDEEDDSLCRICMDAVIDCVLLECGHMVTCTKCGKRMSECPICRQYVVRAVHVFKS", "values": [{"measurement": "binding", "setting": "[6]", "value": "binds"}]}
{"molecule": "Androgen-induced gene 1 (AIG1), endogenous in HL-1 cardiomyocytes (protein, UniProt Q9D8B1 1-238) MALVPCQVLRVAILLSYCSILCNYKAIEMPSHQTYGGSWKFLTFIDLVIQAVFFGICVLTDLSSLLTRGSGNQEQERQLRKLISLRDWTLAVLAFPVGVFVVAVFWTIYAYDREMIYPRLLDNFIPGWLNHGMHTTVLPFILIEMRTSHHQYPSRSSGLAAICTFSVGYILWVCWIHHVTGMWVYPFLEHIGSGARIIFFGSTTILMNFLYLLGEVLNSYIWDTQRSIEEEKEKPKLE", "values": [{"measurement": "binding", "setting": "[7]", "value": "binds"}, {"measurement": "binding", "setting": "[1]", "value": "binds"}, {"measurement": "binding", "setting": "[8]", "value": "binds"}]}
{"molecule": "AIG1 (total length, TL) overexpressed by adenovirus in HL-1 cardiomyocytes (protein, UniProt Q9D8B1 1-238) MALVPCQVLRVAILLSYCSILCNYKAIEMPSHQTYGGSWKFLTFIDLVIQAVFFGICVLTDLSSLLTRGSGNQEQERQLRKLISLRDWTLAVLAFPVGVFVVAVFWTIYAYDREMIYPRLLDNFIPGWLNHGMHTTVLPFILIEMRTSHHQYPSRSSGLAAICTFSVGYILWVCWIHHVTGMWVYPFLEHIGSGARIIFFGSTTILMNFLYLLGEVLNSYIWDTQRSIEEEKEKPKLE", "values": [{"measurement": "binding", "setting": "[9]", "value": "binds"}]}
{"molecule": "full-length AIG1 (total-length, TL) expressed in HEK293T cells (protein, UniProt Q9D8B1 1-238) MALVPCQVLRVAILLSYCSILCNYKAIEMPSHQTYGGSWKFLTFIDLVIQAVFFGICVLTDLSSLLTRGSGNQEQERQLRKLISLRDWTLAVLAFPVGVFVVAVFWTIYAYDREMIYPRLLDNFIPGWLNHGMHTTVLPFILIEMRTSHHQYPSRSSGLAAICTFSVGYILWVCWIHHVTGMWVYPFLEHIGSGARIIFFGSTTILMNFLYLLGEVLNSYIWDTQRSIEEEKEKPKLE", "values": [{"measurement": "binding", "setting": "[10]", "value": "binds"}, {"measurement": "binding", "setting": "[11]", "value": "binds"}, {"measurement": "binding", "setting": "[5]", "value": "binds"}, {"measurement": "binding", "setting": "[12]", "value": "no binding"}]}
{"molecule": "AIG1 Δ161-175 aa mutant expressed in HEK293T cells (protein, UniProt Q9D8B1) MALVPCQVLRVAILLSYCSILCNYKAIEMPSHQTYGGSWKFLTFIDLVIQAVFFGICVLTDLSSLLTRGSGNQEQERQLRKLISLRDWTLAVLAFPVGVFVVAVFWTIYAYDREMIYPRLLDNFIPGWLNHGMHTTVLPFILIEMRTSHHQYPSRSSGLAIHHVTGMWVYPFLEHIGSGARIIFFGSTTILMNFLYLLGEVLNSYIWDTQRSIEEEKEKPKLE", "values": [{"measurement": "binding", "setting": "[5]", "value": "binds"}]}
